Source: publication PMC4336329 (PLoS ONE, 2015)
Among all 310,000 compounds or so, about 14,000 (4.5%) showed an effect of 50% or more. Effects have a minus sign here. This is one part of the list.

Biological target: human ether-à-go-go-related gene (hERG) potassium channel (human, UniProt Q12809)
Assay: primary screen, population patch clamp on CHO cells stably expressing hERG
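Also: peak tail current of the secondary pulse compared with the same well before compound.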

Sequence of human ether-à-go-go-related gene (hERG) potassium channel (Q12809 whole entry, looked up): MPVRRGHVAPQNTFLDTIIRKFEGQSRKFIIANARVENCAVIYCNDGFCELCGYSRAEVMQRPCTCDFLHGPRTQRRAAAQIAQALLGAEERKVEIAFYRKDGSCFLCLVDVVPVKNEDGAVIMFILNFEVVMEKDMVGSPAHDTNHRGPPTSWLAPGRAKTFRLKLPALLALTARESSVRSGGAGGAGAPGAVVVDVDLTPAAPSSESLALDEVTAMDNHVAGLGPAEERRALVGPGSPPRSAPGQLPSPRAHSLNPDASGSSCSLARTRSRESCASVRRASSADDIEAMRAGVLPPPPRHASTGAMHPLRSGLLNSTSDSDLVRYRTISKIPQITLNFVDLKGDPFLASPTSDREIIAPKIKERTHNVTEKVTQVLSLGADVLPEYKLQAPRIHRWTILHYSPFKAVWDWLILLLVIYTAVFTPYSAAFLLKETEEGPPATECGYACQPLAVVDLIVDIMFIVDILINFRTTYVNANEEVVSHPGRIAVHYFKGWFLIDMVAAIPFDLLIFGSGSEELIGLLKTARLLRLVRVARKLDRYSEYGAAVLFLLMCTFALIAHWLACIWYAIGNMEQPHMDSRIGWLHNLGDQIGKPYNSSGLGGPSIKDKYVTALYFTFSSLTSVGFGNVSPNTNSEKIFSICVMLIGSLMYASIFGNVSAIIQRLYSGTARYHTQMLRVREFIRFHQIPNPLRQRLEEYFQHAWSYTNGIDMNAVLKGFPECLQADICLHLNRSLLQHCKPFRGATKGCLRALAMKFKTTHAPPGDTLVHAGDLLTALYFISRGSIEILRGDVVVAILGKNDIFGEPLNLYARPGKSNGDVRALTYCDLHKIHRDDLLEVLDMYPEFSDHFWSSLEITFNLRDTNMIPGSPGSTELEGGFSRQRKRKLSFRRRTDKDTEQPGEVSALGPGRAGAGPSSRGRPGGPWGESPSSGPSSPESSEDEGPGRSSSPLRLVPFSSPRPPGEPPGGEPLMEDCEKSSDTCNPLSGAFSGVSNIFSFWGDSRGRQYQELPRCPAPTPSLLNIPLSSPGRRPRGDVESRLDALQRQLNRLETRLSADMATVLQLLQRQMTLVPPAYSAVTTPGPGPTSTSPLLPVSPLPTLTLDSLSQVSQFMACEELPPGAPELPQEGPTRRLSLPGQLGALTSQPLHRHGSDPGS

Row | SMILES | hERG current change (%, negative = inhibition) at 10uM
1 | COc1ccccc1NC(=O)CN1CCN(CC(=O)Nc2ccc(C)c(F)c2)CC1 | -70%
2 | CN(C)C(=S)SCCn1c(N)nc(N(C)C)nc1=O | 12.2%
3 | C/C(=N\NS(=O)(=O)c1ccc(C)cc1)c1ccc(Br)s1 | 9.9%
4 | Cc1ccc(S(=O)(=O)Nc2ccc3[nH]c(=O)[nH]c3c2)c(C)c1 | 7.85%
5 | COc1cc2ccc(=O)oc2c(CC=C(C)C)c1OC | -2.74%
6 | O=C(NC1CCCCNC1=O)c1ccco1 (stereo not drawn) | 26.8%
7 | Cc1ccc2[nH]cc(CCNC(=O)c3ccc([N+](=O)[O-])cc3)c2c1 | -1.88%
8 | O=C(Nc1ccc(C(F)(F)F)cc1)c1ccccc1Br | 7.52%
9 | CCN(CC)S(=O)(=O)c1ccc2c(c1)N(CC(=O)Nc1cccnc1Cl)C(=O)CO2 | -8.43%
10 | Cc1ccc(C)c(Nc2ncccc2C(=O)NCc2cccs2)c1 | -1.16%
11 | O=C1NN=C(CSc2n[nH]c(=S)s2)CS1 | 22.2%
12 | CN(c1ccccc1C(=O)Nc1ccc2ccccc2c1)S(C)(=O)=O | -22.6%
13 | CN(C)CCCNC(=O)CC(c1ccccc1)c1ccccc1O (stereo not drawn) | -13.2%
14 | CC1CC(C)CN(S(=O)(=O)c2ccc(C(=O)N(c3ccccn3)C3CCCCC3)cc2)C1 (stereo not drawn) | -19.2%
15 | CCOC(=O)C1CCN(C(=O)c2ccc3c(=O)n4nc(Nc5cc(C)ccc5C)sc4nc3c2)CC1 | -4.55%
16 | CCc1ccccc1NC(=O)Cn1nnc(C(=O)NCc2cccs2)c1N | 13.8%
17 | COC(=O)[C@@]1(Cc2ccc(F)cc2)[C@H]2c3cc(C(=O)N(C)C)n(CCc4ccc(OC)c(Br)c4)c3C[C@H]2CN1C(=O)c1ccccc1 | -2.99%
18 | CC(=O)N/C(=C\c1ccccc1)C(=O)OCc1ccc(C)cc1 | -19.9%
19 | O=C(c1ccccc1F)c1cn(CC(=O)N2CCOCC2)c2ccccc12 | -1.82%
20 | Cc1cc(C)c(S(=O)(=O)NCc2ccc3c(c2)cc(C)n3C)c(C)c1 | 6.48%
21 | COc1ccc(-c2csc3nc(C)nc(N4CCC(C)CC4)c23)cc1OC | 8.52%
22 | NC(=O)c1cc(NC(=O)c2ccc(NS(=O)(=O)c3cccs3)cc2)cc(C(N)=O)c1 | 6.58%
23 | COc1ccc(C2Nc3ccccc3C(=O)N2NS(=O)(=O)c2ccccc2)cc1 (stereo not drawn) | 11.5%
24 | COc1cccc(N(C(=O)CCl)C(C(=O)NCCc2ccccc2)c2cccs2)c1 (stereo not drawn) | -18.3%
25 | OC(COc1ccccc1CNCc1cccnc1)CN1CCc2ccccc2C1 (stereo not drawn) | -34.2%
26 | CCn1c(=O)c(=O)n(CC)c2cc(S(=O)(=O)Nc3ccc(C)cc3)ccc21 | 7.02%
27 | Cn1c(=O)c2c(ncn2Cc2cc(-c3ccccc3)no2)n(C)c1=O | -24.4%

Row | SMILES | hERG current change (%, negative = inhibition) at 10uM
28 | COc1ccc(S(=O)(=O)N2CCCN(CC(=O)Nc3cc(NC(C)=O)ccc3OC)CC2)cc1 | -32.7%
29 | CCOc1ccc(N(C)S(=O)(=O)c2ccc(-c3ccc(=O)[nH]n3)s2)cc1 | -15.6%
30 | O=C1c2cccnc2Nc2ccccc2N1CCCF | 2.89%
31 | O=S(=O)(c1ccc(Br)s1)N1CCc2ccccc2C1 | -8.14%
32 | C#CCOc1ccc(/C=C2/C(=O)ON=C2C)cc1Cl | 10.9%
33 | CCOC(=O)N1CCN(C(=O)c2ccc3c(=O)n(CCC4=CCCCC4)c(=O)[nH]c3c2)CC1 | -12.1%
34 | CCCCCCCC(=O)N/N=C(/C)c1c(O)cc(C)oc1=O | -19%
35 | CCOC(=O)N1CCN(C(=O)CSc2ccc(C(=O)OC)cc2[N+](=O)[O-])CC1 | -10.1%
36 | Cc1ccccc1NC1=C/C(=N\S(=O)(=O)c2cccs2)c2ccccc2C1=O | 9.71%
37 | COc1cc(C(C)=O)ccc1OCCN1CCC(Cc2ccccc2)CC1.O=C(O)C(=O)O | -91%
38 | Cc1cc(C)nc(CCNC(=O)c2cc(COc3ccc(F)cc3Cl)on2)n1 | -11.8%
39 | COc1ccccc1C(=O)NN=C1CCN(Cc2ccccc2)CC1 | -0.167%
40 | Cc1cccc(C(=O)OCC(=O)NC(=O)c2ccccc2)c1O | 32.1%
41 | CCOC(=O)N1CCN(C/C(Cl)=C/c2ccccc2)CC1 | -3.25%
42 | O=C(CSc1n[nH]c(-c2cccs2)n1)NCc1cccs1 | -8.77%
43 | COC(=O)c1sc2nc(SCc3cccc(Cl)c3)n(N)c(=O)c2c1C | 1.39%
44 | Cc1ccc(N2CC(C(=O)NCc3ccccn3)CC2=O)cc1 (stereo not drawn) | 5.36%
45 | COC(=O)CC1=C(C(=O)OC)C(c2cccs2)C(C#N)=C(N)O1 (stereo not drawn) | 1.57%
46 | Cc1ccc(NC(=O)c2ccc(S(=O)(=O)N3CCC(C)CC3)cc2)nc1 | -3.08%
47 | CCSc1nnc(NC(=O)c2nc(S(=O)(=O)Cc3ccc(F)cc3)ncc2Cl)s1 | 1.9%
48 | COc1ccc(/C=C/C(=O)NCCn2c(C)cc3ccccc32)cc1OC | -27.5%
49 | Cc1ccc(NS(=O)(=O)Cc2ccccc2)cc1Cl | 8.69%
50 | COC(=O)C1=C(C)NC2=C(C(=O)CC(C)(C)C2)C1c1cccc(C)n1 (stereo not drawn) | 8.61%
51 | C=CCCC(=O)Nc1nc(C)c(-c2csc(Nc3ccccc3OC)n2)s1 | 3.6%
52 | CCN1C(=O)[C@H]2[C@H]3[C@H](O)[C@H](O)C/C(=N\OC[C@@H](C)[C@H](OCc4ccccc4)C(C)C)[C@@H]3CC[C@H]2C1=O | 3.99%
53 | Cc1ccccc1CN(c1ccc(C(=O)NCCC2=CCCCC2)cc1)S(C)(=O)=O | -12%
54 | COc1ccccc1/C=N/NC(=O)c1nnn(-c2nonc2N)c1CSC1=NCCS1 | -3.01%
